This is one part of the list.
What was measured:
Assay in all cases: glycan array binding signal (z-score within array); higher = stronger binding
Conditions in all cases: glycan notation: IUPAC condensed, linker removed
[1] = biological target: Fuc(a1-2)[Gal(a1-3)]Gal(b1-4)GlcNAc(b1-2)Man(a1-3)[Fuc(a1-2)[Gal(a1-3)]Gal(b1-4)GlcNAc(b1-2)Man(a1-6)]Man(b1-4)GlcNAc(b1-4)GlcNAc
In short: (§1)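 Negative Z-scores can be read as non-binding. The Z-score is calculated within each array and then averaged across arrays of one protein sequence at different concentrations or buffers and across linkers. Arrays, 3228 in all, were curated from the Consortium for Functional Glycomics database and kept only where the protein sequence was available.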

[2] = biological target: Fuc(a1-2)[Gal(a1-3)]Gal(b1-4)GlcNAc(b1-2)Man(a1-3)[Fuc(a1-2)[Gal(a1-3)]Gal(b1-4)GlcNAc(b1-2)Man(a1-6)]Man(b1-4)GlcNAc(b1-4)[Fuc(a1-6)]GlcNAc
In short: as §1

[3] = biological target: Fuc(a1-2)[Gal(a1-3)]Gal(b1-4)GlcNAc(b1-3)GalNAc
In short: as §1

[4] = biological target: Fuc(a1-2)[Gal(a1-3)]Gal(b1-4)GlcNAc(b1-3)[Fuc(a1-2)[Gal(a1-3)]Gal(b1-4)GlcNAc(b1-6)]GalNAc
In short: as §1

[5] = biological target: Fuc(a1-2)[Gal(a1-3)]Gal(b1-4)GlcNAc(b1-6)GalNAc
In short: as §1

[6] = biological target: Fuc(a1-2)[Gal(a1-3)]Gal(b1-4)[Fuc(a1-3)]Glc
In short: as §1

[7] = biological target: Fuc(a1-2)[Gal(a1-3)]Gal(b1-4)[Fuc(a1-3)]GlcNAc
In short: as §1

[8] = biological target: Fuc(a1-2)[Gal(a1-3)]Gal(b1-4)[Fuc(a1-3)]GlcNAc(b1-3)GalNAc
In short: as §1

[9] = biological target: Fuc(a1-2)[Gal(a1-4)]Gal(b1-4)GlcNAc
In short: as §1

[10] = biological target: Fuc(a1-2)[GalNAc(a1-3)]Gal
In short: as §1

[11] = biological target: Fuc(a1-2)[GalNAc(a1-3)]Gal(b1-3)GalNAc(a1-3)[Fuc(a1-2)]Gal(b1-4)GlcNAc
In short: as §1

[12] = biological target: Fuc(a1-2)[GalNAc(a1-3)]Gal(b1-3)GalNAc(b1-3)Gal(a1-4)Gal(b1-4)Glc
In short: as §1

[13] = biological target: Fuc(a1-2)[GalNAc(a1-3)]Gal(b1-3)GlcNAc
In short: as §1

[14] = biological target: Fuc(a1-2)[GalNAc(a1-3)]Gal(b1-3)GlcNAc(b1-2)Man(a1-3)[Fuc(a1-2)[GalNAc(a1-3)]Gal(b1-3)GlcNAc(b1-2)Man(a1-6)]Man(b1-4)GlcNAc(b1-4)GlcNAc
In short: as §1

[15] = biological target: Fuc(a1-2)[GalNAc(a1-3)]Gal(b1-3)GlcNAc(b1-2)Man(a1-3)[Fuc(a1-2)[GalNAc(a1-3)]Gal(b1-3)GlcNAc(b1-2)Man(a1-6)]Man(b1-4)GlcNAc(b1-4)[Fuc(a1-6)]GlcNAc
In short: as §1

[16] = biological target: Fuc(a1-2)[GalNAc(a1-3)]Gal(b1-3)GlcNAc(b1-3)GalNAc
In short: as §1

[17] = biological target: Fuc(a1-2)[GalNAc(a1-3)]Gal(b1-3)GlcNAc(b1-6)GalNAc
In short: as §1

[18] = biological target: Fuc(a1-2)[GalNAc(a1-3)]Gal(b1-4)Glc
In short: as §1

[19] = biological target: Fuc(a1-2)[GalNAc(a1-3)]Gal(b1-4)GlcNAc
In short: as §1

[20] = biological target: Fuc(a1-2)[GalNAc(a1-3)]Gal(b1-4)GlcNAc(b1-2)Man
In short: as §1

[21] = biological target: Fuc(a1-2)[GalNAc(a1-3)]Gal(b1-4)GlcNAc(b1-2)Man(a1-3)[Fuc(a1-2)[GalNAc(a1-3)]Gal(b1-4)GlcNAc(b1-2)Man(a1-6)]Man(b1-4)GlcNAc(b1-4)GlcNAc
In short: as §1

[22] = biological target: Fuc(a1-2)[GalNAc(a1-3)]Gal(b1-4)GlcNAc(b1-2)Man(a1-3)[Fuc(a1-2)[GalNAc(a1-3)]Gal(b1-4)GlcNAc(b1-2)Man(a1-6)]Man(b1-4)GlcNAc(b1-4)[Fuc(a1-6)]GlcNAc
In short: as §1

[23] = biological target: Fuc(a1-2)[GalNAc(a1-3)]Gal(b1-4)GlcNAc(b1-3)Gal(b1-4)GlcNAc
In short: as §1

[24] = biological target: Fuc(a1-2)[GalNAc(a1-3)]Gal(b1-4)GlcNAc(b1-3)Gal(b1-4)GlcNAc(b1-3)Gal(b1-4)GlcNAc
In short: as §1

[25] = biological target: Fuc(a1-2)[GalNAc(a1-3)]Gal(b1-4)GlcNAc(b1-3)GalNAc
In short: as §1

[26] = biological target: Fuc(a1-2)[GalNAc(a1-3)]Gal(b1-4)GlcNAc(b1-3)[Fuc(a1-2)[GalNAc(a1-3)]Gal(b1-4)GlcNAc(b1-6)]GalNAc
In short: as §1

[27] = biological target: Fuc(a1-2)[GalNAc(a1-3)]Gal(b1-4)GlcNAc(b1-6)GalNAc
In short: as §1

[28] = biological target: Fuc(a1-2)[GalNAc(a1-3)]Gal(b1-4)[Fuc(a1-3)]GlcNAc
In short: as §1

[29] = biological target: Fuc(a1-2)[GalNAc(a1-3)]Gal(b1-4)[Fuc(a1-3)]GlcNAc(b1-3)GalNAc
In short: as §1

[30] = biological target: Fuc(a1-2)[GalNAc(a1-4)]Gal(b1-4)GlcNAc
In short: as §1

[31] = biological target: Fuc(a1-2)[GalNAc(b1-3)]Gal
In short: as §1

[32] = biological target: Fuc(a1-3)GlcNAc
In short: as §1

[33] = biological target: Fuc(a1-3)[Gal(b1-4)]Glc6S
In short: as §1

[34] = biological target: Fuc(a1-3)[Gal(b1-4)]GlcNAc
In short: as §1

[35] = biological target: Fuc(a1-3)[Gal(b1-4)]GlcNAc(b1-2)Man
In short: as §1

[36] = biological target: Fuc(a1-3)[Gal(b1-4)]GlcNAc(b1-2)Man(a1-3)[Fuc(a1-3)[Gal(b1-4)]GlcNAc(b1-2)Man(a1-6)]Man(b1-4)GlcNAc(b1-4)GlcNAc
In short: as §1

[37] = biological target: Fuc(a1-3)[Gal(b1-4)]GlcNAc(b1-2)Man(a1-3)[Fuc(a1-3)[Gal(b1-4)]GlcNAc(b1-2)Man(a1-6)]Man(b1-4)GlcNAc(b1-4)[Fuc(a1-6)]GlcNAc
In short: as §1

[38] = biological target: Fuc(a1-3)[Gal(b1-4)]GlcNAc(b1-3)Gal(b1-3)[Fuc(a1-4)]GlcNAc
In short: as §1

[39] = biological target: Fuc(a1-3)[Gal(b1-4)]GlcNAc(b1-3)Gal(b1-4)[Fuc(a1-3)]GlcNAc
In short: as §1

[40] = biological target: Fuc(a1-3)[Gal(b1-4)]GlcNAc(b1-3)Gal(b1-4)[Fuc(a1-3)]GlcNAc(b1-3)Gal(b1-4)[Fuc(a1-3)]GlcNAc
In short: as §1

[41] = biological target: Fuc(a1-3)[Gal(b1-4)]GlcNAc(b1-3)GalNAc
In short: as §1

[42] = biological target: Fuc(a1-3)[Gal(b1-4)]GlcNAc(b1-6)GalNAc
In short: as §1

[43] = biological target: Fuc(a1-3)[Gal(b1-4)]GlcNAc(b1-6)[Gal(b1-3)GlcNAc(b1-3)]Gal(b1-4)Glc
In short: as §1

[44] = biological target: Fuc(a1-3)[Gal(b1-4)]GlcNAc6S
In short: as §1

[45] = biological target: Fuc(a1-3)[Gal3S(b1-4)]Glc
In short: as §1

[46] = biological target: Fuc(a1-3)[Gal3S(b1-4)]GlcNAc
In short: as §1

[47] = biological target: Fuc(a1-3)[Gal3S(b1-4)]GlcNAc6S
In short: as §1

[48] = biological target: Fuc(a1-3)[GalNAc(b1-4)]GlcNAc
In short: as §1

[49] = biological target: Fuc(a1-3)[GalNAc(b1-4)]GlcNAc6S
In short: as §1

[50] = biological target: Fuc(a1-4)GlcNAc
In short: as §1

[51] = biological target: Fuc(b1-3)GlcNAc
In short: as §1

[52] = biological target: Gal(a1-2)Gal
In short: as §1

[53] = biological target: Gal(a1-3)Gal
In short: as §1

[54] = biological target: Gal(a1-3)Gal(b1-3)GlcNAc
In short: as §1

[55] = biological target: Gal(a1-3)Gal(b1-3)GlcNAc(b1-2)Man
In short: as §1

[56] = biological target: Gal(a1-3)Gal(b1-3)GlcNAc(b1-2)Man(a1-3)[Gal(a1-3)Gal(b1-3)GlcNAc(b1-2)Man(a1-6)]Man(b1-4)GlcNAc(b1-4)GlcNAc
In short: as §1

[57] = biological target: Gal(a1-3)Gal(b1-3)GlcNAc(b1-3)GalNAc
In short: as §1

[58] = biological target: Gal(a1-3)Gal(b1-3)GlcNAc(b1-6)GalNAc
In short: as §1

[59] = biological target: Gal(a1-3)Gal(b1-3)[Fuc(a1-4)]GlcNAc(b1-2)Man(a1-3)[Gal(a1-3)Gal(b1-3)[Fuc(a1-4)]GlcNAc(b1-2)Man(a1-6)]Man(b1-4)GlcNAc(b1-4)GlcNAc
In short: as §1

[60] = biological target: Gal(a1-3)Gal(b1-4)Glc
In short: as §1

B1: VLRB.aGPA.23-GCN4-biotin (Petromyzon marinus) (protein)
chain: ACPSQCSCSGTEVNCAGKSLASVPAGIPTTTRVLYLNSNQITKLEPGVFDRLANLRELHLWGNQLVSLPPGVFDNLANLEKLWLNSNQLTSLPAGLFDRLVNLEHLGLCCMKLTELPSGAFDKLTRLKQLGLDQNQLKSIPDGAFARLPSLTHVWLHTNPWDCQCTDILYLSGWVAQHSSIVGEGWPWRHSPDSAKCSGTNTPVRAVTEASTSPSKCP
glycan array binding signal (z-score) [1]: -0.073 | glycan array binding signal (z-score) [2]: -0.074 | glycan array binding signal (z-score) [3]: -0.085 | glycan array binding signal (z-score) [4]: -0.069 | glycan array binding signal (z-score) [5]: -0.08 | glycan array binding signal (z-score) [6]: -0.087 | glycan array binding signal (z-score) [7]: -0.073 | glycan array binding signal (z-score) [8]: -0.07 | glycan array binding signal (z-score) [9]: -0.066 | glycan array binding signal (z-score) [10]: -0.078 | glycan array binding signal (z-score) [11]: -0.079 | glycan array binding signal (z-score) [12]: -0.076 | glycan array binding signal (z-score) [13]: -0.074 | glycan array binding signal (z-score) [14]: -0.082 | glycan array binding signal (z-score) [15]: -0.077 | glycan array binding signal (z-score) [16]: -0.064 | glycan array binding signal (z-score) [17]: -0.09 | glycan array binding signal (z-score) [18]: -0.077 | glycan array binding signal (z-score) [19]: -0.078 | glycan array binding signal (z-score) [20]: -0.082 | glycan array binding signal (z-score) [21]: -0.077 | glycan array binding signal (z-score) [22]: -0.073 | glycan array binding signal (z-score) [23]: -0.079 | glycan array binding signal (z-score) [24]: -0.061 | glycan array binding signal (z-score) [25]: -0.078 | glycan array binding signal (z-score) [26]: -0.081 | glycan array binding signal (z-score) [27]: -0.081 | glycan array binding signal (z-score) [28]: -0.06 | glycan array binding signal (z-score) [29]: 0.368 | glycan array binding signal (z-score) [30]: -0.078 | glycan array binding signal (z-score) [31]: -0.082 | glycan array binding signal (z-score) [32]: -0.085 | glycan array binding signal (z-score) [33]: -0.077 | glycan array binding signal (z-score) [34]: -0.075 | glycan array binding signal (z-score) [35]: -0.074 | glycan array binding signal (z-score) [36]: -0.079 | glycan array binding signal (z-score) [37]: -0.078 | glycan array binding signal (z-score) [38]: -0.071 | glycan array binding signal (z-score) [39]: -0.077 | glycan array binding signal (z-score) [40]: -0.076 | glycan array binding signal (z-score) [41]: -0.077 | glycan array binding signal (z-score) [42]: -0.061 | glycan array binding signal (z-score) [43]: -0.079 | glycan array binding signal (z-score) [44]: -0.062 | glycan array binding signal (z-score) [45]: -0.075 | glycan array binding signal (z-score) [46]: -0.065 | glycan array binding signal (z-score) [47]: -0.082 | glycan array binding signal (z-score) [48]: -0.065 | glycan array binding signal (z-score) [49]: -0.084 | glycan array binding signal (z-score) [50]: -0.053 | glycan array binding signal (z-score) [51]: -0.075 | glycan array binding signal (z-score) [52]: 0.157 | glycan array binding signal (z-score) [53]: -0.08 | glycan array binding signal (z-score) [54]: -0.071 | glycan array binding signal (z-score) [55]: -0.086 | glycan array binding signal (z-score) [56]: -0.065 | glycan array binding signal (z-score) [57]: -0.084 | glycan array binding signal (z-score) [58]: -0.073 | glycan array binding signal (z-score) [59]: -0.077 | glycan array binding signal (z-score) [60]: -0.081

— the supplement of paper PMC8728848
